The list shows a part of the results. Values were computed here from the reads of four pooled replicates and scatter widely.
The sequences below were run against T1, Pho4 (S. cerevisiae) (UniProt P07270) (assay: relative binding free energy (BET-seq); higher = weaker binding). Settings: reference: library average.
T1 sequence: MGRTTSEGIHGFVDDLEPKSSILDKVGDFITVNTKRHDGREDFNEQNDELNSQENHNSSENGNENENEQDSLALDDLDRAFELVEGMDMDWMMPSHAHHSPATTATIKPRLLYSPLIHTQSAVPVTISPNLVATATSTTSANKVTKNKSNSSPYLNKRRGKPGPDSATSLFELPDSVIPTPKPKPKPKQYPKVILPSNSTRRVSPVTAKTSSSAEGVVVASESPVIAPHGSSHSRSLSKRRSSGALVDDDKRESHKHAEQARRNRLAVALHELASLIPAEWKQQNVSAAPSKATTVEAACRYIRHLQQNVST
In the case of GGGAGCACGTGATGGC, the “relative binding free energy” value is reported as 0.07 kcal/mol. With TCGCTCACGTGGAGGG the “relative binding free energy” value was 0.19 kcal/mol. With ATCCGCACGTGGTGTG the “relative binding free energy” value was -0.23 kcal/mol. TTTGTCACGTGGTGAT was tested, and the “relative binding free energy” value was 0.08 kcal/mol. ATGGGCACGTGATGGG was tested, and the “relative binding free energy” value was 0.03 kcal/mol. In the case of TAGGTCACGTGGCGTA, the “relative binding free energy” value is reported as 0.04 kcal/mol. TTTTACACGTGGCTCT was tested, and the “relative binding free energy” value was 0.19 kcal/mol. In the case of GCGCTCACGTGTTGTG, the “relative binding free energy” value is reported as 0.17 kcal/mol. For TGCCTCACGTGCGGGT, the “relative binding free energy” value was 0.06 kcal/mol. In the case of GGGATCACGTGATGGA, the “relative binding free energy” value is reported as 0.36 kcal/mol. GTTGACACGTGCTGGG was tested, and the “relative binding free energy” value was -0.11 kcal/mol. TTGAGCACGTGTTGAT was tested, and the “relative binding free energy” value was -0.04 kcal/mol. TTTCGCACGTGTTTCG was tested, and the “relative binding free energy” value was -0.08 kcal/mol. In the case of GAATTCACGTGAATGG, the “relative binding free energy” value is reported as 0.39 kcal/mol. For CGTCGCACGTGGAGTT, the “relative binding free energy” value was 0 kcal/mol. In the case of TGGTTCACGTGTTGAG, the “relative binding free energy” value is reported as 0.3 kcal/mol. CCTGGCACGTGTGTGT was tested, and the “relative binding free energy” value was -0.14 kcal/mol. For GTAATCACGTGGGGCG, the “relative binding free energy” value was 0.11 kcal/mol. With GTTTGCACGTGTCATA the “relative binding free energy” value was 0.08 kcal/mol. With GAGGGCACGTGTTGGC the “relative binding free energy” value was -0.07 kcal/mol. For TTGATCACGTGAACTG, the “relative binding free energy” value was 0.39 kcal/mol. In the case of ACGTTCACGTGTTGGT, the “relative binding free energy” value is reported as 0.23 kcal/mol. TGAATCACGTGAGGAG was tested, and the “relative binding free energy” value was 0.25 kcal/mol. With GAGGACACGTGGTTAG the “relative binding free energy” value was -0.09 kcal/mol. With AATGACACGTGTGTGA the “relative binding free energy” value was 0.01 kcal/mol. For TATGACACGTGGTTGT, the “relative binding free energy” value was 0.02 kcal/mol. GGGCGCACGTGTATGT was tested, and the “relative binding free energy” value was -0.11 kcal/mol. For CGGTACACGTGCTTGG, the “relative binding free energy” value was 0.05 kcal/mol. For TGTGACACGTGTAGGG, the “relative binding free energy” value was 0.03 kcal/mol. With AGCTGCACGTGGGAGA the “relative binding free energy” value was -0.16 kcal/mol. For GGCTACACGTGTGCGG, the “relative binding free energy” value was 0.18 kcal/mol. With AATCGCACGTGTGGTA the “relative binding free energy” value was 0 kcal/mol. With CCGGTCACGTGAGTAG the “relative binding free energy” value was 0.32 kcal/mol. In the case of AAAGGCACGTGTACTG, the “relative binding free energy” value is reported as -0.03 kcal/mol. In the case of CATGGCACGTGGGTAC, the “relative binding free energy” value is reported as -0.09 kcal/mol. For TTTAGCACGTGGGTTA, the “relative binding free energy” value was -0.21 kcal/mol. With CGGATCACGTGTGTAG the “relative binding free energy” value was 0.2 kcal/mol. For GGCTACACGTGAGTGG, the “relative binding free energy” value was 0.24 kcal/mol. For CTTGGCACGTGGTCGT, the “relative binding free energy” value was -0.17 kcal/mol. In the case of TTTGGCACGTGTGTCC, the “relative binding free energy” value is reported as -0.08 kcal/mol. In the case of TTTCACACGTGTTCGT, the “relative binding free energy” value is reported as 0.13 kcal/mol. In the case of TTATTCACGTGGCAAG, the “relative binding free energy” value is reported as 0.32 kcal/mol. With ATGTACACGTGTAGAG the “relative binding free energy” value was 0.06 kcal/mol. In the case of CTGGGCACGTGGTCGT, the “relative binding free energy” value is reported as -0.18 kcal/mol. For TGCTGCACGTGTAGGG, the “relative binding free energy” value was 0.08 kcal/mol. For ATAAGCACGTGTGGGA, the “relative binding free energy” value was 0.02 kcal/mol. For AATATCACGTGTAGAT, the “relative binding free energy” value was 0.27 kcal/mol. TACGGCACGTGGAAGT was tested, and the “relative binding free energy” value was -0.01 kcal/mol. With TGTGGCACGTGTAATA the “relative binding free energy” value was 0.01 kcal/mol. For GTAATCACGTGATGAT, the “relative binding free energy” value was 0.23 kcal/mol. In the case of AGTGTCACGTGAGGCT, the “relative binding free energy” value is reported as 0.07 kcal/mol. With GGTGTCACGTGGGTTC the “relative binding free energy” value was 0.06 kcal/mol. With GTAAGCACGTGGACTG the “relative binding free energy” value was -0.05 kcal/mol. For TAGTACACGTGGGAGG, the “relative binding free energy” value was -0.08 kcal/mol. In the case of GCTTTCACGTGAGGGC, the “relative binding free energy” value is reported as 0.38 kcal/mol. AGTGGCACGTGTTGTC was tested, and the “relative binding free energy” value was -0.11 kcal/mol. For CTTGTCACGTGTTTAT, the “relative binding free energy” value was 0.13 kcal/mol. In the case of AAGGACACGTGTAAGG, the “relative binding free energy” value is reported as 0.26 kcal/mol. With GGAATCACGTGTTGCT the “relative binding free energy” value was 0.18 kcal/mol. For GTATACACGTGGGCGG, the “relative binding free energy” value was -0.04 kcal/mol. In the case of AATGGCACGTGTTCTA, the “relative binding free energy” value is reported as -0.02 kcal/mol. For TTGAGCACGTGAGAGG, the “relative binding free energy” value was 0.06 kcal/mol. For TTTGTCACGTGGTTTA, the “relative binding free energy” value was 0.11 kcal/mol. With CTTAACACGTGTTGTG the “relative binding free energy” value was -0.14 kcal/mol. TAAAGCACGTGGCTTG was tested, and the “relative binding free energy” value was -0.13 kcal/mol. For TCAAACACGTGGTTTG, the “relative binding free energy” value was -0.04 kcal/mol. For GTAGGCACGTGTAGGC, the “relative binding free energy” value was 0.13 kcal/mol. In the case of GGGAGCACGTGAGGCC, the “relative binding free energy” value is reported as 0.28 kcal/mol. AGCTGCACGTGAGTTG was tested, and the “relative binding free energy” value was 0.14 kcal/mol. AGATGCACGTGGAGTA was tested, and the “relative binding free energy” value was -0.04 kcal/mol. With GGCTTCACGTGGCGTA the “relative binding free energy” value was 0.16 kcal/mol. With TTCAGCACGTGGGGCG the “relative binding free energy” value was -0.22 kcal/mol. TTTGCCACGTGTTATT was tested, and the “relative binding free energy” value was 0.03 kcal/mol.
